Source: the supplement of paper PMC12217912
Some of the results follow. Sequences were assembled here from the parent chain. Values near 0.05 are background.

B1: TEV protease; numbered along this chain (parent)
chain: MGESLFKGPRDYNPISSSICHLTNESDGHTTSLYGIGFGPFIITNKHLFRRNNGTLVVQSLHGVFKVKDTTTLQQHLVDGRDMIIIRMPKDFPPFPQKLKFREPQREERICLVTTNFQTKSMSSMVSDTSCTFPSGDGIFWKHWIQTKDGQCGSPLVSTRDGFIVGIHSASNFTNTNNYFTSVPKNFMELLTNQEAQQWVSGWRLNADSVLWGGHKVFMVKPEEPFQPVKEATQL

Variants of: B1
Assay: raw area under fraction-flipped curve 0-4 h after induction (AUC4h, not background-subtracted), DNA-recorder readout of cleavage of the substrate (dimensionless); higher = more cleavage of the substrate by the protease variant
Conditions: temperature: 34 °C; time window: 0-4 h after rhamnose induction
Method: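 In vivo DNA recorder in E. coli TOP10(DE3) ΔrhaA at 34 °C. Each TEVp single-site mutant (parent TEVp 0) is paired with a single-site variant of the 7-mer TEVs (canonical ENLYFQ|S). The substrate sits between flexible linkers in a Bxb1-sfGFP-TEVs-SsrA fusion, so cleavage stabilises Bxb1 and speeds flipping of a recombination array, read by NGS. The value is the raw area under the fraction-flipped curve over 0-4 h after rhamnose induction (AUC4h), with ≥20 reads per time point. It is not background-subtracted; inactive controls average about 0.047.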
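Note: Bxb1 expression induced with 0.2% (w/v) L-rhamnose at OD600 near 0.5, cultures sampled hourly, flipped fraction per protease–substrate barcode pair counted by paired-end Illumina sequencing.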

Row | Variant | area with substrate ENLYAQS | area with substrate ENLYDQS | area with substrate ENLYEQS | area with substrate ENLYGQS | area with substrate ENLYHQS | area with substrate ENLYIQS | area with substrate ENLYKQS | area with substrate ENLYLQS | area with substrate ENLYMQS | area with substrate ENLYNQS | area with substrate ENLYPQS | area with substrate ENLYQQS | area with substrate ENLYRQS | area with substrate ENLYSQS | area with substrate ENLYTQS | area with substrate ENLYVQS | area with substrate ENLYWQS | area with substrate ENLYYQS | area with substrate ENLYCQS
1 | MGESLFKGPRDCNPISSSICHLTNESDGHTTSLYGIGFGPFIITNKHLFRRNNGTLVVQSLHGVFKVKDTTTLQQHLVDGRDMIIIRMPKDFPPFPQKLKFREPQREERICLVTTNFQTKSMSSMVSDTSCTFPSGDGIFWKHWIQTKDGQCGSPLVSTRDGFIVGIHSASNFTNTNNYFTSVPKNFMELLTNQEAQQWVSGWRLNADSVLWGGHKVFMVKPEEPFQPVKEATQL [Y12C] | 0.0563 | 0.0561 | 0.065 | 0.0557 | 0.0698 | 0.124 | 0.041 | 0.0898 | 0.0749 | 0.0684 | 0.0871 | 0.0673 | 0.0744 | 0.0724 | 0.0817 | 0.113 | 0.0846 | 0.0738 | 
2 | MGESLFKGPRDMNPISSSICHLTNESDGHTTSLYGIGFGPFIITNKHLFRRNNGTLVVQSLHGVFKVKDTTTLQQHLVDGRDMIIIRMPKDFPPFPQKLKFREPQREERICLVTTNFQTKSMSSMVSDTSCTFPSGDGIFWKHWIQTKDGQCGSPLVSTRDGFIVGIHSASNFTNTNNYFTSVPKNFMELLTNQEAQQWVSGWRLNADSVLWGGHKVFMVKPEEPFQPVKEATQL [Y12M] | 0.0716 | 0.072 | 0.0661 | 0.0668 | 0.0703 | 0.128 | 0.0587 | 0.0761 | 0.0796 | 0.0685 | 0.0803 | 0.0658 | 0.0649 | 0.0818 | 0.0777 | 0.121 | 0.0937 | 0.0646 | 
3 | MGESLFKGPRDNNPISSSICHLTNESDGHTTSLYGIGFGPFIITNKHLFRRNNGTLVVQSLHGVFKVKDTTTLQQHLVDGRDMIIIRMPKDFPPFPQKLKFREPQREERICLVTTNFQTKSMSSMVSDTSCTFPSGDGIFWKHWIQTKDGQCGSPLVSTRDGFIVGIHSASNFTNTNNYFTSVPKNFMELLTNQEAQQWVSGWRLNADSVLWGGHKVFMVKPEEPFQPVKEATQL [Y12N] | 0.0815 |  | 0.0688 | 0.0586 | 0.0571 | 0.16 | 0.09 |  | 0.0956 | 0.0668 | 0.07 | 0.065 | 0.002 | 0.0646 |  |  | 0.111 | 0.0358 | 
4 | MGESLFKGPRDYFPISSSICHLTNESDGHTTSLYGIGFGPFIITNKHLFRRNNGTLVVQSLHGVFKVKDTTTLQQHLVDGRDMIIIRMPKDFPPFPQKLKFREPQREERICLVTTNFQTKSMSSMVSDTSCTFPSGDGIFWKHWIQTKDGQCGSPLVSTRDGFIVGIHSASNFTNTNNYFTSVPKNFMELLTNQEAQQWVSGWRLNADSVLWGGHKVFMVKPEEPFQPVKEATQL [N13F] | 0.0806 | 0.0604 | 0.0705 | 0.0641 | 0.0663 |  | 0.068 | 0.0806 | 0.0856 | 0.0776 | 0.0513 | 0.0644 | 0.0582 | 0.0687 | 0.0825 | 0.109 | 0.0809 | 0.0684 | 0.0774
5 | MGESLFKGPRDYNHISSSICHLTNESDGHTTSLYGIGFGPFIITNKHLFRRNNGTLVVQSLHGVFKVKDTTTLQQHLVDGRDMIIIRMPKDFPPFPQKLKFREPQREERICLVTTNFQTKSMSSMVSDTSCTFPSGDGIFWKHWIQTKDGQCGSPLVSTRDGFIVGIHSASNFTNTNNYFTSVPKNFMELLTNQEAQQWVSGWRLNADSVLWGGHKVFMVKPEEPFQPVKEATQL [P14H] | 0.0682 | 0.0404 | 0.068 | 0.0526 | 0.0722 |  |  | 0.0936 |  | 0.0748 | 0.0783 | 0.0803 |  | 0.0767 |  |  |  |  | 
6 | MGESLFKGPRDYNPMSSSICHLTNESDGHTTSLYGIGFGPFIITNKHLFRRNNGTLVVQSLHGVFKVKDTTTLQQHLVDGRDMIIIRMPKDFPPFPQKLKFREPQREERICLVTTNFQTKSMSSMVSDTSCTFPSGDGIFWKHWIQTKDGQCGSPLVSTRDGFIVGIHSASNFTNTNNYFTSVPKNFMELLTNQEAQQWVSGWRLNADSVLWGGHKVFMVKPEEPFQPVKEATQL [I15M] | 0.06 |  | 0.0537 | 0.0529 | 0.0591 | 0.128 | 0.0597 | 0.0585 |  | 0.0574 | 0.0774 | 0.0534 | 0.0579 |  | 0.0743 | 0.0671 | 0.043 | 0.0683 | 
7 | MGESLFKGPRDYNPPSSSICHLTNESDGHTTSLYGIGFGPFIITNKHLFRRNNGTLVVQSLHGVFKVKDTTTLQQHLVDGRDMIIIRMPKDFPPFPQKLKFREPQREERICLVTTNFQTKSMSSMVSDTSCTFPSGDGIFWKHWIQTKDGQCGSPLVSTRDGFIVGIHSASNFTNTNNYFTSVPKNFMELLTNQEAQQWVSGWRLNADSVLWGGHKVFMVKPEEPFQPVKEATQL [I15P] | 0.0592 |  | 0.0619 | 0.0578 | 0.0661 |  | 0.0603 |  | 0.0706 | 0.0746 | 0.0618 | 0.0663 | 0.0721 |  |  | 0.114 | 0.0594 |  | 
8 | MGESLFKGPRDYNPISPSICHLTNESDGHTTSLYGIGFGPFIITNKHLFRRNNGTLVVQSLHGVFKVKDTTTLQQHLVDGRDMIIIRMPKDFPPFPQKLKFREPQREERICLVTTNFQTKSMSSMVSDTSCTFPSGDGIFWKHWIQTKDGQCGSPLVSTRDGFIVGIHSASNFTNTNNYFTSVPKNFMELLTNQEAQQWVSGWRLNADSVLWGGHKVFMVKPEEPFQPVKEATQL [S17P] | 0.0637 | 0.0616 | 0.0634 | 0.0589 | 0.0619 |  | 0.0553 |  | 0.0797 | 0.0587 | 0.0688 | 0.054 | 0.0582 | 0.0563 |  | 0.102 |  |  | 
9 | MGESLFKGPRDYNPISSQICHLTNESDGHTTSLYGIGFGPFIITNKHLFRRNNGTLVVQSLHGVFKVKDTTTLQQHLVDGRDMIIIRMPKDFPPFPQKLKFREPQREERICLVTTNFQTKSMSSMVSDTSCTFPSGDGIFWKHWIQTKDGQCGSPLVSTRDGFIVGIHSASNFTNTNNYFTSVPKNFMELLTNQEAQQWVSGWRLNADSVLWGGHKVFMVKPEEPFQPVKEATQL [S18Q] | 0.0995 | 0.0602 | 0.08 | 0.0603 | 0.0843 | 0.159 | 0.0514 |  | 0.111 | 0.0741 | 0.0813 | 0.0575 | 0.0651 |  |  |  | 0.093 | 0.0699 | 
